# Laboratory results as given in patent publication US6949753B2, “Device and method for photoactivation” (Cerus Corporation, priority 1992, dated 2005).
# Assays:
# [1] = Photochemical breakdown of 8-MOP compared with AMT, reverse phase HPLC; assay type: physicochemical; conditions: AMT compared with 8-MOP
# Description: In this example, the photochemical breakdown of 8-MOP is compared with AMT. The samples were analyzed by reverse phase HPLC using a Rainen Dynamax 300A column. Gradient elution was performed with 0.1 M ammonium acetate/acetonitrile (0-70% acetonitrile over 42 minutes). AMT elutes as a single peak at approximately 24 minutes under these conditions. Detection was by absorption at either 260 or 330 nm. The latter wavelength was used for the plasma containing samples.
# Standard solutions of each compound were prepared at various concentrations. These solutions were then diluted 1:10 into water, then 300 ul injected for analysis. All samples were monitored at 300 nm. Peaks were analyzed by measuring either peak height or peak area, then converted to a gh/ml value using the standard plot. Peak area was determining by photocopying the trace, cutting out the copy of the peak, then weighing the resultant trace. The two methods gave essentially the same result.
# [2] = tested on: Calf Thymus DNA; assay: Photoaddition of 3H-8-MOP to Calf Thymus DNA in plasma versus protein free medium; assay type: binding; conditions: plasma versus protein free media (TE buffer), irradiated 0-16 minutes at 25° C.
# Description: Although this measurement used eukaryotic nucleic acid rather than bacterial nucleic acid, it is a useful indicator of the degree of adduct formation for bacteria.
# […]. […] To +DNA samples, 40 ul of DNA stock (7.7 mg/ml) was added as well as either 460 ul plasma (day old frozen) or 450 ul Tris-EDTA (“TE”) buffer. To the latter was also added 10 ul 5M NaCl. For −DNA samples (i.e. the controls), 184 ul plasma and 16 ul water was added.
# The samples were mildly vortexed for approximately one hour and the counts were checked to confirm that the 8-MOP dissolved.
# Each sample (100 ul) was irradiated on an HRI-100 (HRI Research Inc., Concord, Calif.) at 25° C. for 0, 2, 4, 8, and 16 minutes. Samples were kept at 4° C. overnight after irradiation. Thereafter, the samples were extracted. First, a phenol solution was prepared at pH 8 by equilibrating with 0.1 M Tris pH 8. Each sample was then extracted with 100 ul phenol. Each sample was centrifuged for 5 minutes to remove the aqueous phase to a new tube. A second extraction was performed with 100 ul 1:1 phenol:chloroform. A final extraction was performed with 100 ul chloroform.
# The final aqueous phase was precipitated by adding 50 ul NaCl adjusted to give a final concentration of NaCl of 0.2 M and then adding 250 ul ethanol. The samples were again centrifuged (10 minutes). […] The final pellets were brought up in 600 ul water and 100 ul was counted. […]
# [3] = tested on: viruses; conditions: 300 ug/ml of 8-MOP, one hour or more of irradiation with ultraviolet light; cited from earlier work
# [4] = tested on: Yersinia enterocolitica, wild type, serotype 3, biotype 4; assay: Inactivation of Yersinia enterocolitica in human platelet concentrate by 8-MOP plus UVA irradiation, colony counts on BHI agar; assay type: cell-based; conditions: for sufficiency of irradiation for inactivation: 10 ug/ml 8-MOP; for -titer (change of log titer versus untreated control) / log/ml (bacterial titer after treatment): irr. time 10 min UVA; for log/ml (bacterial titer after treatment): platelet concentrate, 25° C., untreated control 9.1
# Text: This organism is found in blood products.
# [5] = tested on: GMP140 on human platelets; assay: Platelet activation, GMP140 expression by CD62 antibody and flow cytometry (FACSCAN); assay type: cell-based; conditions: 10 ug/ml 8-MOP, five minutes UVA, 25° C., stored for 5 days
# Text: When platelets become activated, an alpha granule membrane glycoprotein called GMP140 becomes exposed on the platelet surface. Less than (5%) of fresh, normal unstimulated platelets express detectable GMP 140 levels by flow cytometry. See generally M. J. Metzelaar, Studies on the Expression of Activation-Markers on Human Platelets (Thesis 1991).
# To measure GMP140, a small aliquot of platelet rich plasma is placed in HEPES buffer containing a GMP140-binding antibody or control mouse IgG. CD62 is a commercially available monoclonal antibody which binds to GMP 140 (available from Sanbio, Uden, the Netherlands; Caltag Labs, So. San Francisco, Calif., and Becton Dickinson, Mountain View, Calif.). After a fifteen minute incubation, Goat Anti-Mouse IgG conjugated to FITC is added to the tube in saturating amounts. Finally, the cells are diluted in isotonic saline, fixed with paraformaldehyde and analyzed on a FACSCAN™ (Becton Dickinson, Mountain View, Calif.). The positive control is made by adding Phorbol Myristate Acetate (PMA) to the test system at a final concentration of 10−^7 M.
# In this example, CD62 was employed to measure the impact, if any, of irradiation alone on platelet activation. […]
# Isoton II was added (1 ml) to each tube and mixed gently with a polypropylene disposable pipette. […] The platelets were analyzed on the FACSCAN™. […]
SMILES,"photochemical degradation on irradiation (HPLC, FIG. 7) [1]","addition of 8-MOP to DNA (adducts per 1000 base pairs, FIG. 6) [2]",virus inactivation [3],"bacteria inactivated ([4]; 3 ug/ml of 8-MOP, 10 min UVA)",sufficiency of irradiation for inactivation ([4]; five minutes of irradiation),sufficiency of irradiation for inactivation ([4]; ten minutes irradiation),-titer (change of log titer versus untreated control) ([4]; 8-MOP .06 ug/ml),log/ml (bacterial titer after treatment) ([4]; 8-MOP .06 ug/ml) [log/ml],-titer (change of log titer versus untreated control) ([4]; 8-MOP .2 ug/ml),log/ml (bacterial titer after treatment) ([4]; 8-MOP .2 ug/ml) [log/ml],impact on platelets (CD62 assay) of irradiation in the presence of psoralen [5]
"Cc1oc2c(C)c3oc(=O)cc(C)c3cc2c1CN [AMT, 4′-aminomethyl-4,5′,8-trimethylpsoralen]",degrades more quickly than 8-MOP,,,,,,,,,,
"COc1c2occc2cc2ccc(=O)oc12 [8-MOP, 8-methoxypsoralen]",,much better in the protein free media,effectively inactivate viruses,almost six logs,appears to be adequate,more than enough irradiation,−0.1,9.0,−2.3,6.8,without damage to the cells
